Some of the results follow. At the low end of the ranking, values are background and their order means little.

The test concerns the target T1, GST-Rok-C97-191 (UniProt O34857).
T1 sequence: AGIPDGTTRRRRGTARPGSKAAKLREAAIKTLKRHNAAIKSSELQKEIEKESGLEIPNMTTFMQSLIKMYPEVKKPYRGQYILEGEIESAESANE
The test can be described thus: protein binding microarray.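 Note: rank score from −0.5 (least bound) to 0.5 (best bound).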 The conditions noted are these: Rok is a gene silencer of Bacillus subtilis; high values mean tight binding; most listed sequences are background and not binding sites; double strand, one strand shown.
With AGTGCTGG, the binding signal is -0.0287 E-score.

In the case of CGTTAAGA, the binding signal is -0.0342 E-score.

In turn, CTAAGAAA gave a binding signal of 0.0591 E-score.

AGAAGCTG returned a binding signal of -0.0756 E-score.

CTCCCAGA had a binding signal of -0.183 E-score.

On to CATCTCCG, for which the binding signal was -0.244 E-score.

For ACAAAGTG, the binding signal was 0.0122 E-score.

Sequence GACTAGGA returned a binding signal of -0.0139 E-score.

ACCTGTAG had a binding signal of 0.188 E-score.

With AACCTATA, the binding signal came out at 0.183 E-score.

The sequence AATTGCCT registered a binding signal of -0.159 E-score.

Turning to AATTGGGC, the binding signal was -0.217 E-score.

Regarding AAATCGTC, the binding signal worked out at 0.0128 E-score.

The sequence CCCGTATC had a binding signal of -0.04 E-score.

As for AAAGGTCC, the binding signal is -0.222 E-score.

Take CGTGCTAG: the binding signal is 0.0138 E-score.

The sequence CATGAAAC returned a binding signal of -0.0657 E-score.

The sequence CAGCGCGC registered a binding signal of -0.211 E-score.

In the case of TCAATGCA, the binding signal was -0.132 E-score.

As to GTAAAGTA, the binding signal came to 0.266 E-score.

GCACCATA gave a binding signal of 0.11 E-score.

In the case of CATACAGG, the binding signal is -0.0755 E-score.

GAAGCTGC had a binding signal of -0.161 E-score.

ACGCCACT: the binding signal was -0.0989 E-score.

ATTCGACC had a binding signal of -0.138 E-score.

CAGGGGAA came in with a binding signal of -0.0921 E-score.

GAGGTAAA registered a binding signal of 0.197 E-score.

On to CTGAAGCC, for which the binding signal was -0.138 E-score.

For the sequence CTACGGTC, the binding signal was -0.00263 E-score.

Regarding CGGTCAGA, the binding signal was -0.0545 E-score.

With GGTCCAGA, the binding signal was -0.282 E-score.

Regarding GACCAGCC, the binding signal is -0.331 E-score.

In turn, CTACGATA registered a binding signal of 0.316 E-score.

With GCCCTTTA, the binding signal was -0.17 E-score.

On to GAGGCAGC, for which the binding signal is -0.268 E-score.

The sequence AATTACAT came in with a binding signal of 0.339 E-score.

The sequence CCACGAGA came in with a binding signal of -0.237 E-score.

Consider CGGCGTTA, for which the binding signal turned out to be 0.103 E-score.

Sequence GGACTCTA yielded a binding signal of -0.0774 E-score.

The sequence GGAAGGTA had a binding signal of 0.0786 E-score.

For the sequence AGTAAAAC, the binding signal was determined as 0.246 E-score.

As to ACGGGACT, the binding signal is 0.158 E-score.

In the case of AGCGTAGC, the binding signal is -0.233 E-score.

As to ACGAGATA, the binding signal worked out at 0.142 E-score.

In the case of ATATAGAG, the binding signal worked out at 0.165 E-score.

GCTTCTCA gave a binding signal of 0.0108 E-score.

As for ATTTTCCG, the binding signal came to 0.329 E-score.

ATTTCAGC had a binding signal of 0.178 E-score.

Sequence ATCATAAA gave a binding signal of 0.247 E-score.

ATAATGAC: the binding signal came to 0.105 E-score.

As to AGAACGGC, the binding signal worked out at 0.0736 E-score.

Sequence AAGTATCA yielded a binding signal of 0.107 E-score.

Consider CAATGCGA, for which the binding signal is -0.0881 E-score.

Sequence CATAATCG had a binding signal of 0.114 E-score.

GACGTTGA: the binding signal is -0.161 E-score.

As for CAAGGCCC, the binding signal was -0.358 E-score.

Turning to AAAATCTG, the binding signal is 0.00361 E-score.

In the case of AATTGTCA, the binding signal was -0.201 E-score.

As to GACACTGC, the binding signal is -0.137 E-score.

Consider GCAAGTAC, for which the binding signal was 0.257 E-score.

CATAATTC gave a binding signal of 0.182 E-score.

As to CGGATAAG, the binding signal was -0.0845 E-score.

On to AATCGGGG, for which the binding signal was -0.184 E-score.

The sequence ACACGCGG gave a binding signal of -0.181 E-score.

In turn, CCGACTTA came in with a binding signal of 0.089 E-score.

Take CCTGCAAG: the binding signal was -0.238 E-score.

The sequence AGCCCGTG came in with a binding signal of -0.127 E-score.

CCAACTGC came in with a binding signal of 0.0316 E-score.

ACCACCTG gave a binding signal of -0.116 E-score.

Take CAAGCATG: the binding signal is -0.127 E-score.

CATCCTGA gave a binding signal of -0.13 E-score.

ACTTACCA: the binding signal is 0.219 E-score.

In turn, AGTTTGAC yielded a binding signal of -0.0921 E-score.

ACACAAAT: the binding signal turned out to be 0.159 E-score.

As for GTCCGTGA, the binding signal is -0.229 E-score.

In turn, ACTTTAGG yielded a binding signal of 0.0834 E-score.

Take AGCAGCCA: the binding signal is -0.192 E-score.

Sequence AGGTGGCA returned a binding signal of -0.245 E-score.

Sequence CACTTTGC yielded a binding signal of -0.0894 E-score.

Take ATCAAAGA: the binding signal was 0.0322 E-score.

CAAGTCAA displayed a binding signal of 0.144 E-score.

Sequence ATCCCCCA registered a binding signal of -0.27 E-score.

In the case of ATTTTGCA, the binding signal was 0.101 E-score.

Regarding CTGGTATA, the binding signal was 0.205 E-score.

In the case of ACGGCCGC, the binding signal is -0.224 E-score.

GGTGGCCA returned a binding signal of -0.204 E-score.

For ACGTGGTG, the binding signal is -0.136 E-score.

With ACCGTTTA, the binding signal is -0.0269 E-score.

GCACCGGC displayed a binding signal of -0.224 E-score.

The sequence CCCGTCCC came in with a binding signal of -0.145 E-score.

Sequence CAGGGCCC registered a binding signal of -0.318 E-score.

Consider CTTAGAAG, for which the binding signal was -0.0526 E-score.

CTGCCGGC gave a binding signal of -0.084 E-score.

Consider ATCTTTCA, for which the binding signal turned out to be 0.0961 E-score.

In turn, ATGCCCGA came in with a binding signal of -0.167 E-score.

On to GCGTTGCA, for which the binding signal was -0.176 E-score.

As to AAGGCCGC, the binding signal is -0.192 E-score.

For ACTGGCAC, the binding signal is -0.224 E-score.

Sequence CGTGTAGC displayed a binding signal of -0.0895 E-score.

Regarding AAGTCCCC, the binding signal is -0.12 E-score.

For CGTGCTAC, the binding signal was found to be 0.182 E-score.

The sequence AATAAACA had a binding signal of 0.179 E-score.

With GTTTGACA, the binding signal was -0.165 E-score.

ATTAGTGC gave a binding signal of 0.199 E-score.

ACGTATAA had a binding signal of 0.268 E-score.

Sequence CGGCGCCC yielded a binding signal of -0.139 E-score.

Turning to CCATGAAC, the binding signal was -0.0824 E-score.

In turn, AGCGGTAC came in with a binding signal of -0.208 E-score.

CAATTGCC had a binding signal of -0.106 E-score.

The sequence ACTCTTGG registered a binding signal of -0.111 E-score.

In the case of ATGCCGTA, the binding signal was determined as 0.00241 E-score.

The sequence ACTCATCG displayed a binding signal of 0.0111 E-score.

Turning to AGGAGCGC, the binding signal was -0.246 E-score.

In turn, ATATACAC yielded a binding signal of 0.289 E-score.

TCCATAAA registered a binding signal of -0.0431 E-score.

With AAAGCGTA, the binding signal worked out at 0.0298 E-score.

CAACCGAG came in with a binding signal of -0.155 E-score.

In turn, AAGTTTGG showed a binding signal of 0.0482 E-score.

Sequence CTCTACTC had a binding signal of -0.00133 E-score.

Sequence GAGTAATC yielded a binding signal of 0.149 E-score.

The sequence AAGTTGGA displayed a binding signal of -0.145 E-score.

Turning to CACAGCAG, the binding signal was -0.357 E-score.

Regarding ATTCCAAG, the binding signal amounted to 0.00122 E-score.

The sequence ACGTCCCA returned a binding signal of -0.183 E-score.

Sequence ACCCGGAC yielded a binding signal of -0.245 E-score.

In turn, CTCCAAGA gave a binding signal of -0.084 E-score.

AGACACTA showed a binding signal of 0.0331 E-score.

For ACACAATA, the binding signal turned out to be 0.153 E-score.

CCTGCCAA: the binding signal worked out at 0.000588 E-score.

For AGCTTTAT, the binding signal was 0.139 E-score.

Consider ACAAACGT, for which the binding signal turned out to be 0.0766 E-score.

Sequence ACGCTGTG came in with a binding signal of -0.183 E-score.

Turning to AATGGTCT, the binding signal was -0.0373 E-score.

Regarding TGCTCAAA, the binding signal was -0.0774 E-score.

In the case of ACACCGGC, the binding signal is -0.282 E-score.

The sequence TGGGACCA registered a binding signal of -0.17 E-score.

Consider GCCACATA, for which the binding signal was -0.17 E-score.

As for GTCCGGCA, the binding signal was -0.0894 E-score.

In turn, TGGCACAA registered a binding signal of -0.148 E-score.

The sequence GGGTTGGA returned a binding signal of -0.19 E-score.

With AGTTATTC, the binding signal worked out at 0.155 E-score.

Sequence ATCGGCCA registered a binding signal of 0.0732 E-score.

For AGCATGCC, the binding signal is -0.0867 E-score.

AGTAAACT showed a binding signal of 0.105 E-score.

In the case of CGATTGCC, the binding signal was -0.0576 E-score.

AAGATTGA registered a binding signal of -0.0328 E-score.

In the case of ACTACGGC, the binding signal was 0.135 E-score.

The sequence GCATTACA had a binding signal of 0.0406 E-score.

Sequence GCGTAAAA gave a binding signal of 0.139 E-score.

ACCTTCTC registered a binding signal of -0.0355 E-score.

Regarding AGGGTCTA, the binding signal is -0.218 E-score.

The sequence AATTGTGA yielded a binding signal of 0.177 E-score.

The sequence ACGGATAT had a binding signal of 0.0273 E-score.

CCCTGACC: the binding signal was -0.368 E-score.

GGCCGAAA: the binding signal is -0.0763 E-score.

AGTAGTAG gave a binding signal of 0.385 E-score.

The sequence CTCTTGGA registered a binding signal of -0.216 E-score.

In turn, TACTTCTA had a binding signal of 0.374 E-score.

On to AATGCAGT, for which the binding signal was -0.0264 E-score.

Sequence CTCATTAC returned a binding signal of 0.0511 E-score.

CTCAAGCA yielded a binding signal of -0.137 E-score.

CGGTGCGA returned a binding signal of -0.192 E-score.

In the case of AAGTGCTG, the binding signal is -0.222 E-score.

Regarding GCAATGGA, the binding signal is -0.132 E-score.

As for GAGCCTAC, the binding signal was -0.193 E-score.

On to ATCTAGAC, for which the binding signal stood at 0.17 E-score.

With CTCTCGTA, the binding signal is -0.00131 E-score.

Regarding GAATTTTA, the binding signal was found to be 0.304 E-score.

ATTGGCGA displayed a binding signal of 0.0442 E-score.

Consider GGGATTTA, for which the binding signal turned out to be 0.194 E-score.

Sequence AGGTTACA gave a binding signal of 0.121 E-score.

AGGTGTCC gave a binding signal of -0.13 E-score.

For the origin of these results see PMC6212790.
